We go through 40 sequences from the supplement of paper PMC10441789.

The list shows a part of the results. Antibody binding of pooled human sera (four to six donors per pool; dilution not stated) to peptides of the Trypanosoma cruzi antigen TSSA on microarrays. Quantile-normalised fluorescence in arbitrary units, mean of duplicate arrays; higher = more binding. No active / inactive call. The uninfected pools are read here as the healthy donors of the same country. The strongest signals lie near the top of the scale (about 60,000).

This assay concerns pooled sera of uninfected people, USA. Kind of assay: antibody binding signal (normalised fluorescence) (arbitrary fluorescence units); higher = stronger serum antibody binding to peptide. On the procedure: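 Microarray of 15-residue peptides over residues 30-55 of Trypanosoma cruzi TSSAII, each with 1 to 10 substitutions at naturally variable positions, probed with one serum pool per country.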
With DNKTATGEAPSQPGA, the antibody binding signal turned out to be 153. Next, TDKKAAAGETPSPPG: 1180. Next, PPSGTEKKAAAGETP: 214; TISTPPSGTEKKAAT: 172; SGTDNKPATGEAPSQ: 240. For the sequence SGKDNKAATGEAPSQ, the antibody binding signal came to 119. Next, GKDKKTAAGEAPSQS: 92.7. Next, KKTATGEAPSPSGAS: 313; ISTPPSGTENKAAAG: 842.

The sequence GTEKKPATGEAPSPS showed an antibody binding signal of 702. On to ENKTATGETPSPPGA, for which the antibody binding signal amounted to 464. Under KDKKAATGEAPSQSG stands 90.6; under SGTDNKAAAGGTPSP, 222; under TDNKAAAGETPSQPG, 121. Under PPSGTENKAATGGAP stands 1100. Next, GKDNKAAAGEAPSQS: 124; PPSGTDNKPATGGAP: 1170; PSGKEKKAAAGGTPS: 128. As to TDKKTAAGEAPSQSG, the antibody binding signal came to 135. Under KAAAGETPSQPGASS stands 177; under TDKKAAAGGTPSQPG, 166. Under NKTATGEAPSPPGAS stands 1220; under ENKPAAGETPSQPGA, 193. Next, PSGKDNKTATGGAPS: 144. Turning to KKAAAGGAPSQSGAS, the antibody binding signal came out at 187.

The sequence DNKAAAGGTPSPPGA showed an antibody binding signal of 111. Next, TEKKAAAGGTPSQSG: 229.

In the case of TEKKPATGGAPSPSG, the antibody binding signal amounted to 695.

The sequence KPAAGGTPSQSGASS gave an antibody binding signal of 167. Next, GKEKKTATGGAPSQP: 115; ISTPPSGKDNKAAAG: 163. GKENKAAAGEAPSPP yielded an antibody binding signal of 118.

For KAAAGETPSPPGASS, the antibody binding signal turned out to be 493.

The sequence KEKKTAAGEAPSPSG came in with an antibody binding signal of 104. Under EKKTATGETPSQSGA stands 746. Under TEKKTAAGGAPSQSG stands 276; under DNKTAAGEAPSPPGA, 151; under DKKPAAGETPSQPGA, 140.

GKDKKTATGGTPSPS displayed an antibody binding signal of 94.6. On to GKDKKPATGETPSPP, for which the antibody binding signal was 164.
